According to PMC6759578:
These are yes or no findings as the source states them, for the method shown. Binding seen in cells or lysates may run through a third protein. Some binding calls cover weakened binding; strength is not graded here. For some of these results: Where a sequence is shown, tags or fusion partners need not be part of it. Each block holds one binder with its values, some of them ahead of it.

Amino acid sequences for entries named in this document (tags omitted).
UniProt Q8IUC6: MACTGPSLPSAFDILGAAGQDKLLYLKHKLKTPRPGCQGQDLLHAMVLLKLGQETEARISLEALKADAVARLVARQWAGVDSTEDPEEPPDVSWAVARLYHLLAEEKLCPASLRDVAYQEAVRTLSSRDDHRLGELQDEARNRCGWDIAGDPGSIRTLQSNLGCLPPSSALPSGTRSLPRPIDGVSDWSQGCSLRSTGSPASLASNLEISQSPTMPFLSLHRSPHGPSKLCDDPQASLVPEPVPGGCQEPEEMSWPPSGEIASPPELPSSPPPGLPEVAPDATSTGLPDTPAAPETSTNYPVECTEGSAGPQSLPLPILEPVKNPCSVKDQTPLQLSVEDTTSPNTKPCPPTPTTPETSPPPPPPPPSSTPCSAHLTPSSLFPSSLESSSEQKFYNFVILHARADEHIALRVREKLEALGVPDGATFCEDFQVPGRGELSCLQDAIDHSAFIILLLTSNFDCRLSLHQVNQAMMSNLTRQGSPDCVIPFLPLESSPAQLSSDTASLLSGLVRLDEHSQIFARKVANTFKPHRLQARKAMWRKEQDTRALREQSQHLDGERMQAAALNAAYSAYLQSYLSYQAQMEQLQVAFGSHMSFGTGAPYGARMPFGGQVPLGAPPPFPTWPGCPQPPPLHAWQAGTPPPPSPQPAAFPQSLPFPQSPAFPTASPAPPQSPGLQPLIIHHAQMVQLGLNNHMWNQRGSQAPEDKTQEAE
UniProt Q7Z434: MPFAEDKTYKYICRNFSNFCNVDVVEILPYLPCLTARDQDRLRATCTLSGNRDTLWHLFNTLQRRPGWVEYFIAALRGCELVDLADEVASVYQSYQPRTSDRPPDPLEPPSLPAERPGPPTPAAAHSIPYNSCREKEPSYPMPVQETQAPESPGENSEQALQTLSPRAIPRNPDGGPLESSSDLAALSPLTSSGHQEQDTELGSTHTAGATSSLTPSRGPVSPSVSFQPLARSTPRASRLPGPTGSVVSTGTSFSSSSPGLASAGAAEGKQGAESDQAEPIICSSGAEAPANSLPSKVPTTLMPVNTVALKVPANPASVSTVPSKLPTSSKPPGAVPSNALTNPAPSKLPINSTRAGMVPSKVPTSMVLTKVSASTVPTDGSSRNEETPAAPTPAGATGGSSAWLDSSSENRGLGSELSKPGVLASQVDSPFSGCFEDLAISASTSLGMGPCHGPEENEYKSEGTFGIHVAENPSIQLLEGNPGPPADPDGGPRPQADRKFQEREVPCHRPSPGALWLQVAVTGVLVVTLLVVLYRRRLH

Columns and labels:
[1] = target: FLAG-TRIF (UniProt Q8IUC6); assay: co-IP; HEK293T cells co-transfected with HA-DDX23 (full size or truncations) and FLAG-tagged adaptor; IP lysis buffer (50 mM Tris pH 7.4, 150 mM NaCl, 1% NP-40, 0.5% deoxycholate); precipitated with anti-FLAG beads, blotted with anti-HA
[2] = target: FLAG-MAVS (UniProt Q7Z434); assay: as above
[3] = target: FLAG-STING, Q86WV6; assay: as above; settings: remark: other sources report otherwise
[4] = target: FLAG-tagged TRIF (expressed in A549 cells) (UniProt Q8IUC6); assay: co-IP; A549 cells transfected with FLAG-tagged TRIF for 24 h, with or without poly(I:C) stimulation; anti-FLAG and Protein G beads; blotted with DDX23 and MAVS antibodies

- binding [1]: binds
- binding [2]: binds
B1: HA-DDX23 (human DDX23, full size) (protein, UniProt Q9BUQ8 1-820)
chain: MAGELADKKDRDASPSKEERKRSRTPDRERDRDRDRKSSPSKDRKRHRSRDRRRGGSRSRSRSRSKSAERERRHKERERDKERDRNKKDRDRDKDGHRRDKDRKRSSLSPGRGKDFKSRKDRDSKKDEEDEHGDKKPKAQPLSLEELLAKKKAEEEAEAKPKFLSKAEREAEALKRRQQEVEERQRMLEEERKKRKQFQDLGRKMLEDPQERERRERRERMERETNGNEDEEGRQKIREEKDKSKELHAIKERYLGGIKKRRRTRHLNDRKFVFEWDASEDTSIDYNPLYKERHQVQLLGRGFIAGIDLKQQKREQSRFYGDLMEKRRTLEEKEQEEARLRKLRKKEAKQRWDDRHWSQKKLDEMTDRDWRIFREDYSITTKGGKIPNPIRSWKDSSLPPHILEVIDKCGYKEPTPIQRQAIPIGLQNRDIIGVAETGSGKTAAFLIPLLVWITTLPKIDRIEESDQGPYAIILAPTRELAQQIEEETIKFGKPLGIRTVAVIGGISREDQGFRLRMGCEIVIATPGRLIDVLENRYLVLSRCTYVVLDEADRMIDMGFEPDVQKILEHMPVSNQKPDTDEAEDPEKMLANFESGKHKYRQTVMFTATMPPAVERLARSYLRRPAVVYIGSAGKPHERVEQKVFLMSESEKRKKLLAILEQGFDPPIIIFVNQKKGCDVLAKSLEKMGYNACTLHGGKGQEQREFALSNLKAGAKDILVATDVAGRGIDIQDVSMVVNYDMAKNIEDYIHRIGRTGRAGKSGVAITFLTKEDSAVFYELKQAILESPVSSCPPELANHPDAQHKPGTILTKKRREETIFA

- binding [3]: no binding
B2: HA-DDX23 (human DDX23, full size), Q9BUQ8 1-820 (protein)
chain: B1 chain

- binding [4]: binds
B3: endogenous DDX23 (protein, UniProt Q9BUQ8 1-820)
chain: B1 chain
